# Reference: the supplement of paper PMC3334620
# The full ranking holds about 33,000 sequences; the median of “E-score (-0.5 to 0.5)” is about -0.021, and the highest 2% start at about 0.32. This is one part of the list.
# Target: T1, Zap1 (UniProt P47043)
# T1 sequence: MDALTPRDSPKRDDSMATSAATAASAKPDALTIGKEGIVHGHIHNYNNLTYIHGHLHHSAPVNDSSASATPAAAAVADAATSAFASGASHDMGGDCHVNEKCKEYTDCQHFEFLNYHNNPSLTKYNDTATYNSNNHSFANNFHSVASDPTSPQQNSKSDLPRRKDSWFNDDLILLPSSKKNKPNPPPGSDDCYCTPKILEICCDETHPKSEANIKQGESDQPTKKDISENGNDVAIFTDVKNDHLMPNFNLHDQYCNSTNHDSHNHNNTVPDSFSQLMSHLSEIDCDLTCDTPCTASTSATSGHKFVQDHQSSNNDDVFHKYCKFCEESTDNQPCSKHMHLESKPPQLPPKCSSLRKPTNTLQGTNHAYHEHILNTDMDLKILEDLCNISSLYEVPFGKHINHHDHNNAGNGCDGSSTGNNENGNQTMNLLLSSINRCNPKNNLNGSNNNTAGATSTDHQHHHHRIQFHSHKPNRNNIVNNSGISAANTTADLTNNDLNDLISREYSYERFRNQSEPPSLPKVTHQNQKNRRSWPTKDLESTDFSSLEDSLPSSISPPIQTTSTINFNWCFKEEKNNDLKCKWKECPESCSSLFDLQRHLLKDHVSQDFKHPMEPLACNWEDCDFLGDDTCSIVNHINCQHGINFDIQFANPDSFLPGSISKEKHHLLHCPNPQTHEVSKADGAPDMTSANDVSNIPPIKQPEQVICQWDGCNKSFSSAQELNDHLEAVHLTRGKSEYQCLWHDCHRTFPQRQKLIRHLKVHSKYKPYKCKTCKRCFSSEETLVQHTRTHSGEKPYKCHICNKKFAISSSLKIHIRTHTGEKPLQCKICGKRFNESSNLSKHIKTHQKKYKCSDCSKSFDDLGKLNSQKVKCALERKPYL
# Assay: PBM E-score (8-mer binding enrichment) (E-score (-0.5 to 0.5)); higher = stronger / more preferred TF binding; most listed sequences are background and not binding sites
# Details: protein concentration: 200 nM; construct: GST-full length
# Summary of the method: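 The E-score, a modified Wilcoxon-Mann-Whitney statistic, was computed by the Universal PBM Analysis Suite for every ungapped eight-base word pooled with its reverse complement. Scans behind it were normalised with masliner after bound GST-tagged yeast transcription factors were detected with fluorescent anti-GST. The proteins, at about 100-200 nM, had been applied to universal all-10-mer Agilent arrays made double-stranded by primer extension.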
row,Sequence,PBM E-score
1,ATCCAAAT,-0.0156
2,GCGGGCCC,-0.0946
3,ATTCCCAA,0.18
4,CCCTCTTC,-0.137
5,ACTGCTCA,0.094
6,AGATTCCG,0.163
7,GGTCCTTA,0.143
8,ACATTAAC,0.195
9,ACGAGGAT,-0.069
10,AGTTCCGC,0.037
11,AGCGTCCT,-0.258
12,CTCCTTAC,-0.0613
13,GTTTTTCA,0.189
14,AACAGTAC,0.13
15,CTTGAGGC,-0.17
16,TTATGCAA,0.162
17,ATTGTACA,0.0531
18,AAGTACGC,-0.152
19,ACGCTGGC,-0.233
20,GTGACAGA,-0.0613
21,ACTGAACG,-0.0857
22,CGCCGGCA,-0.189
23,ACGGGCCA,-0.0237
24,CAAAGGCC,0.103
25,CCCCTGCG,-0.17

row,Sequence,PBM E-score
1,GACTGTGC,-0.209
2,CCGACCCA,0.074
3,AAAAAAAC,0.216
4,ACCCCGTA,0.27
5,GAAACGAC,0.00701
6,CAAGGACG,-0.0639
7,ACCTAACA,0.205
8,GCTGCACA,-0.142
9,ACTTGAGG,0.0228
10,AGACAGTG,-0.138
11,GAAATCTA,0.0568
12,AGCACAGA,-0.0261
13,AGACTTTA,-0.0915
14,AGGGAATG,-0.0655
15,ATGTCTGG,-0.0336
16,CCTGTCGC,0.07
17,AGAATTCT,0.14
18,CCTTTTTC,0.244
19,GTAGTTTA,0.26
20,GAATAGCA,0.056
21,ACACAAAG,0.11
22,TCGAGCGA,0.00534
23,CAAGTATG,0.0716
24,CAAATCAA,0.0611
25,CCGCACAC,-0.0131

row,Sequence,PBM E-score
1,AGATCGGA,-0.119
2,CCTGATTA,0.12
3,AATTGTCC,0.0537
4,ACAGTACA,0.0478
5,GCCCTCGC,-0.189
6,GTGTATAA,-0.037
7,ATGTGGCG,-0.105
8,CCCGGGCC,-0.0348
9,CACACTCA,0.0991
10,CCGACGCC,0.00541
11,AATAGGGT,0.374
12,CCGACTGA,-0.178
13,ATACACTA,0.133
14,AGCCTCCC,-0.285
15,ATTCAACA,0.0625
16,GAAGTCAA,0.00236
17,AGCCTTTC,-0.185
18,CCTTTAAC,0.352
19,AATCCTTA,0.00386
20,ATTCGCGA,0.0448
21,CCCCCCCG,-0.363
22,AAAAGCCT,-0.297
23,ATAGTCAT,-0.0925
24,CGAATCCG,-0.134
25,CACGCTCC,-0.239

row,Sequence,PBM E-score
1,CAGATATA,0.165
2,AAGGCGCG,-0.261
3,ATTCCAAT,0.078
4,ATGCAATC,-0.014
5,CGTATGAA,0.101
6,ATGGACTA,-0.0198
7,AAACCCGC,-0.0153
8,CTTCTTTA,0.141
9,CACACGAA,0.134
10,ATACCTTC,0.169
11,TGGTTACA,0.395
12,ACCAGAAG,-0.0493
13,ACAGACTA,0.00562
14,ACCTTCAG,0.29
15,CAGGCCGC,-0.235
16,GTAAATTA,0.0174
17,CCGGCTCA,-0.0474
18,ATGCCGAG,-0.145
19,ATTACGCC,-0.109
20,ACTGAGAC,-0.131
21,ATGGCTTC,-0.0944
22,CTGCGAGC,-0.0642
23,ACGCCGAC,-0.111
24,AAATATCC,0.148
25,CGGGTGGA,-0.0426

row,Sequence,PBM E-score
1,TCGGTTAA,0.274
2,AACCGAAT,0.132
3,ATCTGTCA,-0.0498
4,GCAAGTAA,0.182
5,CTCGATTC,-0.0635
6,ATTTCCGG,0.107
7,GTGTGGCA,-0.332
8,ATCTTCAG,0.0589
9,AAATTGGT,0.267
10,CACCTTGG,0.0937
11,CTGCCGGA,-0.107
12,GCAGGCTA,-0.25
13,ACGTGGGC,-0.382
14,CTACCTAC,0.0617
15,CACAGGTA,0.233
16,GGGGTCAC,0.428
17,AACTACTT,0.0669
18,CAAGCGGG,-0.157
19,AGAAATTA,0.198
20,CAACGAAC,0.0604
21,AGAGGAGA,-0.268
22,CTGCCGGC,-0.272
23,GTGGAACA,-0.156
24,GAAACAGA,0.0671
25,TACCCACA,0.219

row,Sequence,PBM E-score
1,TCTCCCCA,-0.0334
2,GGCCGGTA,0.154
3,TAAGGGTA,0.433
4,ATGCCGGA,-0.189
5,CAATAACC,0.468
6,CCTTATAG,0.262
7,ACCCTTCA,0.341
8,TAGATTGA,0.057
9,CCATATCG,-0.0983
10,ACTAAGCC,0.113
11,TCGTGACA,-0.0645
12,CCCCCGGG,0.167
13,AGCACGGG,-0.0256
14,CATACCTA,0.129
15,CAATAGAG,-0.206
16,ACGTGCCG,-0.162
17,GGAGCAGA,-0.229
18,AGAAGGTC,0.237
19,GCCGAGGA,-0.104
20,GAGGTGGA,-0.172
21,ACCGAAGG,0.0422
22,CGCGTAGA,0.166
23,AGAAGTAT,0.0734
24,TACTAAGA,0.107
25,CGACAGAG,-0.178

row,Sequence,PBM E-score
1,AAGACTGG,-0.239
2,CGAGTCCG,-0.044
3,CAGGGGTC,0.321
4,CCTCGTCG,-0.00814
5,TGGAGCCA,-0.239
6,AGATAGGC,-0.259
7,CTAGTTAA,0.144
8,CTGCGGAC,0.0062
9,ACTGCAGA,-0.0714
10,AACTCGGC,0.0542
11,GGGTCCAC,-0.0924
12,ACCACAGC,-0.0509
13,CTGGAAAA,0.151
14,CTTCAGGA,0.107
15,AGTCAAAA,0.0613
16,CCAGCATA,-0.197
17,ACACTTCA,-0.154
18,CCTGATAG,-0.219
19,ATCGGTCC,-0.234
20,AGGCTTGC,-0.326
21,GTCTCGGA,-0.0133
22,AGAGCTCG,-0.039
